# Results taken from PubChem BioAssay AID1508642 (National Center for Advancing Translational Sciences (NCATS), 2021).
# About 200 (0.47%) of roughly 43,000 compounds were called active. Another 12% or so got no clear call; they are omitted. Calls follow the shape of the dose curve; as a rule, active = well fitted cell-killing curve with a large enough effect; inconclusive = small, poorly fitted or top-dose-only effect, or effect the other way; inactive = flat fitted curve, though single readings scatter. The list shows a part of the results.
# Assay: Cell viability qHTS assay in S16 Pmp22-F2sN cells; also: nearly all actives have a fitted effect of over 65% in size
# Conditions: S16 Pmp22-F2sN Schwann cells viability, CellTiter-Glo, 24 h; series mostly up to 57.5 µM; activity change, negative = cytotoxicity: at the top concentration
# Outline: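 Used to flag compounds lowering reporter output through toxicity, this quantitative HTS measures ATP-based CellTiter-Glo luminescence in S16 Pmp22-F2sN Schwann cells after 24 h compound exposure at 37C.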
# % is scaled to controls: 0 for no effect and ±100 for the full control effect.
row,SMILES,"activity change, negative = cytotoxicity"
1,Cc1ccc(-n2c(-c3ccc(Br)cc3)nc3c(cnn3-c3ccccc3)c2=O)cc1,inactive: -15.8%
2,Cc1ccc(N2CCN(C(=O)c3cn(C)c4ccc(S(=O)(=O)N5CCC(C)CC5)cc4c3=O)CC2C)cc1 (stereo not given),inactive: 14%
3,O=C(Nc1nnc(S(=O)(=O)N2CCCc3ccccc32)s1)c1ccc(Cl)cc1,inactive: 6.37%
4,CCN(C(=O)CSc1nc(-c2ccc(C(C)C)cc2)no1)c1ccccc1,inactive: -4.98%
5,COc1ccc2c(c1)CC(C(=O)Nc1ccc(Br)c(C)c1)CO2 (stereo not given),inactive: -8.18%
6,Cc1c2cnn(-c3ccccc3)c(=O)c2c(C)n1CC(=O)Nc1ccccc1Br,inactive: 1.13%
7,COc1ccccc1N1CCN(S(=O)(=O)c2ccc(-c3coc(C)n3)cc2)CC1,inactive: 13.2%
8,COc1cccc(C2CC(=O)Nc3c2c(=O)n(C)c2nc4ccccc4n32)c1 (stereo not given),inactive: -1.42%
9,CCOC(=O)c1c(C)[nH]c(C)c1S(=O)(=O)N(C)CC(=O)Nc1cccc(C(F)(F)F)c1,inactive: 27.8%
10,CCOC(=O)C1CCN(C(=O)Cn2ncc3c([nH]c4ccccc43)c2=O)CC1,inactive: 1.33%
11,O=C(Cn1c(=O)n(Cc2nc(-c3ccccc3)no2)c(=O)c2cc3c(cc21)OCO3)Nc1cccc(C(F)(F)F)c1,inactive: 3.7%
12,COc1ccc(-c2ccc(CCC(=O)O)n2-c2cc(Cl)ccc2O)cc1,inactive: 5.9%
13,Cc1cc(C)cc(NC(=O)Cn2c(=O)n(Cc3ccc4c(c3)OCO4)c(=O)c3oc4ccccc4c32)c1,inactive: -0.693%
14,Cc1cccc(CNC(=O)Cn2ccc3cc(S(=O)(=O)N4CCC(C)CC4)ccc32)c1,inactive: -2.91%
15,CCOc1ccc(NC(=O)C(C)Sc2nc3ncccc3o2)cc1 (stereo not given),inactive: -3.53%
16,CC1CCN(S(=O)(=O)c2ccc3c(c2)N(CC(=O)NCCCN2CCCC(C)C2)C(=O)CS3)CC1 (stereo not given),inactive: -15.6%
17,Cc1cccc(CNC(=O)c2ccc(NC(=O)N3CCSc4ncccc43)cc2)c1,inactive: 6.33%
18,Cc1cccc(NC(=O)c2oc3ccc(S(=O)(=O)N4CCC5(CC4)OCCO5)cc3c2C)c1C,inactive: -23.1%
19,CC(=O)c1ccc(N2CCN(c3ncnc4c3cnn4C)CC2)cc1,inactive: -9.48%
20,Cc1ccc2c(c1)-c1ncc(C(=O)c3cc(Br)ccc3O)cc1CO2,inactive: 21.3%
21,Cn1nc(-c2ccc(N3CCCCC3)c(NC(=O)c3ccc(Cl)cc3)c2)c2ccccc2c1=O,inactive: 2.38%
22,COc1ccc(C)cc1NC(=O)CN1C(=O)COc2ccc(S(=O)(=O)NC3CCCC3)cc21,inactive: 13.8%
23,CCOc1ccccc1NC(=O)c1nn(C)c2c1CSc1ccccc1-2,inactive: 0.344%
24,CCOc1ccc(-c2csc(-c3c(N)c(C(=O)c4ccc5c(c4)OCO5)n4ccccc34)n2)cc1,inactive: 9.93%
25,CCCn1c(=NC(=O)c2c(-c3c(F)cccc3Cl)noc2C)c(C(=O)OCC)cc2c(=O)n3ccccc3nc21,inactive: 0.122%
